44 molecules from paper PMC4336329 (PLoS ONE, 2015) can be followed below.

SMILES strings stand for the structures. The whole screen tested about 310,000 compounds, of which about 2,200 (0.71%) showed an effect of 50% or more. Effects have a minus sign here. This is one part of the list.

In the assay the target is human ether-à-go-go-related gene (hERG) potassium channel (human, UniProt Q12809). Nature of the assay: primary screen, population patch clamp on CHO cells stably expressing hERG.
Sequence of human ether-à-go-go-related gene (hERG) potassium channel (Q12809 whole entry, looked up): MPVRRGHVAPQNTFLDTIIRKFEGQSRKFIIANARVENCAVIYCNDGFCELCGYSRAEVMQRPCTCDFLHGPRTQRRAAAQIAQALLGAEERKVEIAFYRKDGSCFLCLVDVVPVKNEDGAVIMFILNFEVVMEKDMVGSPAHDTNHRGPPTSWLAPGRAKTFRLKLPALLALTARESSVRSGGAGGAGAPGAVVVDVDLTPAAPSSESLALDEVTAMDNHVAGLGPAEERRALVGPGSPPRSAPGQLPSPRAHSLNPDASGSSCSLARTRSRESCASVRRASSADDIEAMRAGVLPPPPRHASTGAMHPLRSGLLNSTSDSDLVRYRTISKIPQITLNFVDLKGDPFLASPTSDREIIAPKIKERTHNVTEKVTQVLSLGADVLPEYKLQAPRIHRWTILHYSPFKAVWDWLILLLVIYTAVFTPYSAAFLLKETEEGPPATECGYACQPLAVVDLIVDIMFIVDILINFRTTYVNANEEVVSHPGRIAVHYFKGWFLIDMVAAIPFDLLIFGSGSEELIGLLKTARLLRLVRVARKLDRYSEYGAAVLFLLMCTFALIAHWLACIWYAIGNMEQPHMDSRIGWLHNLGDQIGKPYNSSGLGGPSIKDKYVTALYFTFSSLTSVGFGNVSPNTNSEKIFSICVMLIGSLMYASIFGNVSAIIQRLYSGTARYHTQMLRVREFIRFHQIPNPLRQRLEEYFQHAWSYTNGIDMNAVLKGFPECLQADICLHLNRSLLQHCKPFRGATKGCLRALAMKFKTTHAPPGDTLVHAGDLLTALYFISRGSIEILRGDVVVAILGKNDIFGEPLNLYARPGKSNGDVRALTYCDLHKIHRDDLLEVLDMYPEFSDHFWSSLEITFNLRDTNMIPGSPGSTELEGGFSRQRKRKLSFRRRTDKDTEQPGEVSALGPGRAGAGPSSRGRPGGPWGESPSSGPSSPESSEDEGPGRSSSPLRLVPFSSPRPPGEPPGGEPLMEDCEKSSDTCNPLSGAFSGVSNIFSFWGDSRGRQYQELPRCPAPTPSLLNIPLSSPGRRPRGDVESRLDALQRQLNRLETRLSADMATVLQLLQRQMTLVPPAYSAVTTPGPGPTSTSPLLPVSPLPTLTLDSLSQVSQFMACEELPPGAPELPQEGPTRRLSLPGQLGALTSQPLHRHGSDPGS
For `CCN(CC)S(=O)(=O)c1ccc(N/N=C(\C)c2ccc3c(c2)OCO3)c([N+](=O)[O-])c1`, the “hERG current change (%, negative = inhibition) at 1uM” value was 14%.
Next, `O=C(C1=C[C@@H](C2CC2)C[C@@H](OCc2ccc(CO)cc2)O1)N1CCOCC1`: 16.4%; `COc1ccc(NC(=O)C2=CC(c3ccc(OC)cc3)=NS(=O)(=O)N2C)cc1`: 8.2%; `Cc1cc(Br)ccc1NC(=S)NC1CCCC1`: 14.3%.
Next, `O=C(O)C1CN(c2nc(Cl)ccc2[N+](=O)[O-])C1`: 13.1%; `S=C(NCc1ccco1)Nc1ccc(Oc2ccccc2)cc1`: 5.98%.
Next, `CCc1ccc(C(=O)NNC(=O)CN2C(=O)NC(CC)(c3ccccc3)C2=O)cc1` (centres unmarked): 1.17%; `O=C(OCc1nc2ccccc2s1)C1CCN(S(=O)(=O)c2cccs2)CC1`: -2.2%; `Cc1ccc(C(=O)Nc2cccnc2)cc1[N+](=O)[O-]`: 14.1%.
As to `O=C(c1ccc(Oc2ccc(C(F)(F)F)cn2)cc1)N1CCN(c2ccccc2)CC1`, the “hERG current change (%, negative = inhibition) at 1uM” value was -4.18%.
As to `CCOC(=O)c1cc(NC(=O)Nc2nccs2)c(C)nc1C`, the “hERG current change (%, negative = inhibition) at 1uM” value amounted to 12.8%.
As for `Cc1ccc(N=C2C(=O)Nc3ccc(C)c(Br)c32)cc1`, the figure is 16.4%; as for `Cc1cc(N)n(-c2ccccc2C)n1`, -4.81%; as for `Cc1cc(C(=O)Nc2ccc(C)c(S(=O)(=O)N3CCOCC3)c2)c(C)o1`, 8.83%.
As for `Cn1c(N)c(C(=O)COC(=O)c2cccc(S(=O)(=O)N3CCCCC3)c2)c(=O)n(C)c1=O`, the figure is 12.8%; as for `CCN1CCN(Cc2nc3cc(NC(=O)COc4ccc([N+](=O)[O-])cc4)ccc3n2C)CC1`, 8.57%.
`COc1ccccc1CNC(=O)c1cccnc1`: the “hERG current change (%, negative = inhibition) at 1uM” value is listed as 14.2%.
Next, `N=C1CCC(=N)c2c1c(O)c1ccccc1c2O`: 9.66%.
Next, `COc1ccc(CCc2nnc(N)s2)cc1OC`: 8.63%; `O=C(NC1CCCCC1)C1c2ccccc2C(=O)N1Cc1ccc2c(c1)OCO2` (centres unmarked): 10.7%.
As for `Cc1nc(CN2CCN(C(=O)CCc3nnc(Cc4c[nH]c5ccccc45)o3)CC2)cs1`, the figure is 21.2%; as for `COc1ccc(CCN2CC(C(=O)NCc3c(C)n[nH]c3C)CCC2=O)cc1` (centres unmarked), 6.9%.
Take `CCCCCCSc1cc(-c2nc3ccc(Cl)cn3c2NC2CCCCC2)ccc1OC.O=C(O)C(F)(F)F`: the “hERG current change (%, negative = inhibition) at 1uM” value was 5.78%.
For `COc1ccc(NS(=O)(=O)c2ccc(OCC(=O)N3CCN(C)CC3)cc2)cc1Cl`, the “hERG current change (%, negative = inhibition) at 1uM” value was determined as 2.02%.
Next, `Cc1c(C(=O)N2C[C@@H](C)O[C@@H](C)C2)oc2c(F)cccc12`: 13.5%.
As for `O=C(Cn1cc2c(n1)CCCC2)Nc1ccccc1Br`, the figure is 7.65%; as for `Cc1ccc(S(=O)(=O)Cn2nnnc2C(C(C)C)N2CCN(C(=O)c3ccco3)CC2)cc1.Cl` (centres unmarked), 3.27%.
For `Cc1ccccc1CNC(=O)CCNS(=O)(=O)c1ccc(OC(F)(F)F)cc1`, the “hERG current change (%, negative = inhibition) at 1uM” value is 2.24%.
Next, `COc1ccc(OCCCN(C)Cc2ccccc2)cc1.O=C(O)C(=O)O`: -6.95%.
Next, `COC(=O)C1=C(C)N(CCc2ccc(OC)c(OC)c2)C(=O)C1`: 15.2%.
Next, `O=C(COC(=O)c1ccccc1Nc1ccccc1)c1ccccc1`: 10.5%; `COc1ccc(CCN2C(=O)c3[nH]nc(-c4ccccc4O)c3C2c2ccccc2)cc1OC` (centres unmarked): 15.5%; `S=C1NNC2(NN1)C1CC3CC(C1)CC2C3`: 12.4%.
For `CC(C)(C)Nc1c2ccccc2nc2ccccc12`, the “hERG current change (%, negative = inhibition) at 1uM” value is recorded as -39%.
Next, `O=C(N/N=C/c1ccc(Br)s1)c1ccncc1`: 2.97%.
Next, `O=C(CN1CCN(S(=O)(=O)c2ccc(Br)cc2)CC1)c1ccc(O)c(O)c1`: -9.72%.
Next, `CS(=O)(=O)NC1c2cccc3cccc(c23)C1N1CCOCC1` (centres unmarked): 12.1%.
Regarding `CCCCCCCCCCCCC(NC(C)=O)(C(=O)OCC)C(=O)OCC`, the “hERG current change (%, negative = inhibition) at 1uM” value turned out to be 12.5%.
Next, `COc1cccc(C(=O)N2CCN(S(=O)(=O)Cc3ccccc3)CC2)c1`: 9.27%; `COc1ccc(C(=O)NC(=S)Nc2ccc3oc(=O)ccc3c2)cc1OC`: 11.5%; `CCOC(=O)c1cnn(-c2ccccc2)c1-n1cccc1C(=O)C(=O)Nc1ccccc1`: 5.82%.
As for `O=[N+]([O-])c1cccc(N(CC(O)CN2CCCCC2)S(=O)(=O)c2ccccc2)c1` (centres unmarked), the figure is -24.2%; as for `O=C(CNC(=O)c1ccc(Br)o1)Nc1cccc(S(=O)(=O)N2CCCC2)c1`, 4.27%; as for `NS(=O)(=O)c1ccc(CCNC(=O)C(=O)NCC2OCCN2S(=O)(=O)c2ccc(Cl)cc2)cc1` (centres unmarked), 13.4%.
